# Measurements as given in PubChem BioAssay AID651820 (National Center for Advancing Translational Sciences (NCATS), 2012).
# The whole screen tested about 340,000 compounds, of which about 12,000 (3.5%) were called active. Inconclusive means that the source gave no clear call. Such entries were picked first, then a sample of the others. The call rests on the fitted dose curve; in most records, active means well fitted inhibition curve with a large enough effect; inconclusive means small, poorly fitted or top-dose-only effect, or another doubt; inactive means no such curve, though single readings can be large or run the other way. Potencies of inconclusive entries are left out as doubtful fits.
# Experiment: qHTS Assay for Inhibitors of Hepatitis C Virus (HCV)
# Details: Huh7.5.1 HCVcc-Cre (HCVcc is cell-culture hepatitis C virus) infection, luciferase reporter, 44 h; activity change, negative = inhibition: at 41.8 µM (top of the series)
# In short: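 A cell-based infection assay in which seeded cells (1,000 per well) receive test compound after 4 h, are inoculated with HCVcc-Cre at approximately 0.5 moi, and are incubated 44 h before luminescence detection.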
# On the % scale 0 is the no-effect control and ±100 the full control effect; potency means the concentration at half of the fitted maximal effect; tags describe the fitted curve by direction and shape.
SMILES,Potency,"activity change, negative = inhibition"
CCN(CC)CCN(C(=O)c1ccc2c(c1)CCCC2)c1nc2c(C)cccc2s1,"inconclusive [inhibitor, full curve]",–
CCOc1ccc(CCNC(=O)COC(=O)C2=NNC(=O)CC2)cc1OCC,"inconclusive [inhibitor, single point]",–
CC(=O)Nc1ccc(NC(=O)c2cccc(S(=O)(=O)N(C)C3CCCCC3)c2)cc1,"inconclusive [inhibitor, single point]",–
C[C@H](CO)N1C[C@H](C)[C@@H](CN(C)C(=O)NC2CCCCC2)Oc2ccc(NS(C)(=O)=O)cc2C1=O,–,inactive: 23.2%
NS(=O)(=O)c1ccc(CNc2nc(-c3cccnc3)nc3ccccc23)cc1,–,inactive: -22.9%
CC(C)c1cc(CN2C(C)COCC2C)cc(C(C)C)c1O (stereo not given),–,inactive: 2.4%
CCOC(=O)c1[nH]cnc1C(=O)N1CCC(C)CC1,–,inactive: 7.15%
O=C(C#Cc1ccccc1)Nc1ccc(F)cc1,"inconclusive [inhibitor, partial curve]",–
Cc1ccc(-c2nnn(CC(=O)N(CCCO)C(C(=O)NC3CCCC3)c3ccc(F)cc3)n2)o1 (stereo not given),–,inactive: -25.9%
C=CC[C@@H](Cc1ccc(F)cc1)C(=O)OC[C@@H]1CCCN1C(=O)[C@@H](CC=C)CC(=O)N[C@H](CO)Cc1ccccc1,"inconclusive [inhibitor, full curve]",–
Clc1cccc(Cl)c1C1Nc2cccc3cccc(c23)N1,"inconclusive [inhibitor, single point]",–
COc1ccccc1OCc1ccc(C(=O)NCc2ccco2)o1,"inconclusive [inhibitor, partial curve]",–
Cc1ccc(C)c(Nc2cc(C)nc(-c3ccccc3O)n2)c1,"inconclusive [inhibitor, partial curve]",–
CC(=O)c1c(C)[nH]c(C(=O)N2CCN(c3ccc(F)cc3)CC2)c1C,–,inactive: -13.3%
CCCCNC(=S)NNC(=O)CCn1nc(C)c(Br)c1C,–,inactive: 16.8%
NS(=O)(=O)c1ccc(N2N=C(c3ccccc3)CC2c2ccc(F)cc2)cc1 (stereo not given),"inconclusive [inhibitor, single point]",–
O=C(NC(=S)Nc1nc2ccccc2s1)c1ccco1,–,inactive: -6.13%
Cc1c(C(=O)NCCCN2CCCC2=O)oc2c(Cl)cccc12,"inconclusive [inhibitor, partial curve]",–
Cc1ccc(OCC(=O)NN=C2c3ccccc3-c3ccccc32)cc1,active: 14.1 µM,–
CN1CCN(CCCN(Cc2cccs2)C(=S)Nc2ccc(Cl)cc2)CC1,"inconclusive [inhibitor, single point]",–
COc1cc2c(cc1OC)CN(Cc1nc3ccsc3c(=O)[nH]1)CC2,"inconclusive [inhibitor, single point]",–
Nc1c(Cl)cc2c(c1Oc1ccccc1)C(=O)c1ccccc1C2=O,–,inactive: -18.5%
COC(=O)c1ccc(N2C(=O)c3cc(N4CCOCC4)c([N+](=O)[O-])cc3C2=O)cc1,–,inactive: 4.06%

SMILES,Potency,"activity change, negative = inhibition"
CCN(CC)S(=O)(=O)c1ccc(N2CCCC2)c(NS(=O)(=O)c2ccccc2)c1,"inconclusive [inhibitor, single point]",–
COc1ccc(NC(=O)C2CCN(c3ncnc4c3nc3n4CCCCC3)CC2)cc1Cl,"inconclusive [inhibitor, full curve, poor fit]",–
CCN1CCN(S(=O)(=O)c2ccc(Cl)c(C(=O)NCCOc3ccc(C)cc3)c2)CC1,"inconclusive [inhibitor, single point]",–
CSc1ncccc1C(=O)Nc1ccc2c(c1)OCCO2,–,inactive: -8.27%
O=C(Nc1ccncc1)c1cccc(S(=O)(=O)N2CCN(c3ccc(F)cc3)CC2)c1,"inconclusive [inhibitor, partial curve]",–
COc1cc(OC)c(OC)cc1CNC(=O)c1ccc(S(=O)(=O)N2CC(C)OC(C)C2)cc1 (stereo not given),–,inactive: 8.68%
CCn1cc(C(=O)NCc2ccc(Cl)cc2)c(=O)c2cc(S(=O)(=O)N(C)C)ccc21,"inconclusive [inhibitor, single point]",–
COC(=O)CCc1ccc(O)cc1,–,inactive: 6.05%
COc1ccc(NC(=S)N(CCc2nc3cc(C)c(C)cc3[nH]2)Cc2cccnc2)cc1,"inconclusive [inhibitor, single point]",–
O=C(N/N=C/c1cn(-c2ccccc2)nc1-c1cccs1)c1ccc(Cl)cc1,"inconclusive [inhibitor, partial curve]",–
O=C(NCc1ccccc1)C(=O)Nc1nc(-c2ccccc2)cs1,"inconclusive [inhibitor, single point]",–
CCOC(=O)c1sc(Nc2ccccc2Cl)nc1C,"inconclusive [inhibitor, single point]",–
O=C(NCCc1ccccn1)c1ccc(COc2ccccc2)o1,"inconclusive [inhibitor, single point]",–
C[C@@]1([C@@H](NC(=O)c2cccs2)c2ccc(-c3ccccc3)cc2)C[C@H]1C1CCCCC1,–,inactive: 8.1% [at 8.37 µM]
CCOc1ccc(N=C2NN=C(c3cc(C)n(CC4CCCO4)c3C)CS2)cc1 (stereo not given),"inconclusive [inhibitor, partial curve, poor fit]",–
Cc1ccc(C)c(S(=O)(=O)N2CCCC2CNC(=O)c2ccc([N+](=O)[O-])cc2)c1 (stereo not given),active: 11.2 µM,–
CC(=O)c1ccc(NC(=S)N2CCCC(C(F)(F)F)C2)cc1 (stereo not given),–,inactive: 19.9%
Cc1oc2ccc(O)cc2c1C(=O)c1ccc(Cl)cc1,"inconclusive [inhibitor, partial curve]",–
COc1ccc(NC(=O)C2CC(c3cccc(Br)c3)=NO2)cc1OC (stereo not given),"inconclusive [inhibitor, single point]",–
CCOc1ccc(CCNC(=O)CS(=O)Cc2nc(-c3ccccc3Cl)oc2C)cc1OCC (stereo not given),"inconclusive [inhibitor, partial curve]",–
COCCNC(=O)c1c(N)n(CCC2=CCCCC2)c2nc3ccccc3nc12,–,inactive: -6.07%
CN1C(=O)/C(=C/c2cc(N=Nc3ccccc3)ccc2O)SC1=S,"inconclusive [inhibitor, single point]",–
